The full ranking holds about 4,500 sequences; the median of “median log2 fold change of GCK-ALFA target abundance (FLAG IP / Myc IP barcode read proportion)” is about 0.078, and the lowest 2% start at about -0.6. Some of the results follow.
B1: GBRAP_160_4605 (protein)
chain: MEEVEELMKEIRELIEEAVKMIEGESPEERLVIIKVTMGEILLLLDESPIVSEEIEEFADELADEVIETVEANPDLSVEEIRELLEEFLEKIEKKLKEEH
B2: GBRAP_80_6801 (protein)
chain: AEAELAAELARIAELDPELAERVREIIERARRMGVPTAALAELARAVAELLEVDPELARERVEELEEELRELEEEGDSAGAEAAVRVAAGEMLLEVEELE
B3: GBRAP_160_4288 (protein)
chain: SEKAEKLIKEIEEIAEEAIKMMVGQTREERVTIVRVAGGEVAMELIENEEISDETVDKVLAIWDEVAETIAANPDLTDEEIRELIEKAVEEAKKLVKEEA
B4: GBRAP_35_5605 (protein)
chain: ESEKEITEMLVAYIEDLTLAVPDAPVETLAAMVNSAIKSAEELVKEEKNNLEALKKLKEALEKLLKALEKHHGDVPEMQEQIAKVKELIEELKKKIKEIE
B5: GBRAP_52_6374 (protein)
chain: SVEEVAKLLKEALELIIEGGEEEEIKKLAKEILKYSDEEILKAAELVAKEIKKLSKEEAEKYLEAAFELADILIEVGLDELVASNIEAEIGKAAYEVEKK
B6: GBRAP_52_6221 (protein)
chain: SAEEARAAAEEIVEIVETEGVEAAVERLIALAKENSPEFVKAVLAEIARLAESKSLETAEALLDALLAAEDALIAAGVSEADVSDAIAALAAVAVKLEAA
B7: GBRAP_184_5146 (protein)
chain: KVLRVFIEAETVEEALEQTREAFEQAKAQGAKLQLFIELENATVEEVDELAKAVKELVDEYGLTDAQVTLVVEADEEEADKIIEAAEKHGIRVVVALEEE
B8: GBRAP_83_6935 (protein)
chain: AEKITVVANSDTIEEAFKIAIDLHKEEGLEVEIEIIITREDIEKLLEEFEKVAKEGVNVELRILLIGATEEEAKELKEKLEEIAKKYGVEVKVEVELVEP
B9: GBRAP_57_6443 (protein)
chain: MSRLEKAKKLAEKIKKMLEENAPKEEILKAFEELLDLLSKEELLDLALLLDPSTRADESKEELKKKLLALFKEALEKEGKEAAKEMVDLALGILEMSESE
B10: GBRAP_52_6100 (protein)
chain: MEERLEAYARELVAAAKAGDLERVTAILLRIVEEFSEEEVERTLERFAELVSKEPLEEAERMTDIALEALDRVAEETGREELMDDAEARLAAAAYNKTLE
B11: GBRAP_160_4785 (protein)
chain: MERVEKVTKKFKEAAEEALKLSEGETVEERANIFDVELGSAILELIEEGLLNDEEEEVAAEVRDELVEKILENPNLTEEELKKLAEEAVEKLREKLKELE
B12: GBRAP_95_7084 (protein)
chain: EEELEEAEALMATAVDLYDAGLEEQAARAIRDALDELEELGYKVADKELLERLLRHFVALALRHFDAEEVERALALAEASGAPAEIIAALRAALAALRAA
B13: GBRAP_83_6901 (protein)
chain: AEKIAIAVPGDRVEEAVDIAIDLHKNEGYEVELEILATREELPKVRAAVERLFKAGVDAEVTILGEGITPEEAEALEKELRAAAAAAGSKMKITVEAIEP
B14: GBRAP_160_4197 (protein)
chain: MEKIEKIIESIREETERVIKALDEESVEEVAVFAAVEYGSVLMEAVELGEENDEILDIIAEAGDEIVKYLRENADASVEERKKKIREITEKAIERIKEAA
B15: GBRAP_83_6995 (protein)
chain: KEKITVAATGDHFLEAAEAAIDLHKEEGYEVELEFIATREDKEKVLEAVRKIAEAGVKTEITILAIGFSEEELEELEKELKKIAEEAGADIKITVEGIEL
B16: GBRAP_52_5937 (protein)
chain: MEARLRALLDEMIALVKAGDLEGARALAREAVATLSEEELEALIDLLAERALEAAPEDVEYVLELAEILAEELEAEGWDEVLADDLLARVSAAAYKNLQK
B17: GBRAP_128_3176 (protein)
chain: AVEEVKKRTEKKMEEIINSDVETARKIAEELFEELKTLSPEEREAAVEVILENLPKLTAEKLEVLADVARKHRDEFDPEGAELVADLEVEALNEALELEE
B18: GBRAP_184_5337 (protein)
chain: KTLEVYIPNKSLEEIKKEIEKALKKAAKENASLLITIEAEGLSTEELLELLKYIGEKAKELGIKDVTIGLDIEVNEEDADKLLKVADEYGIRLTVALSDE
B19: GBRAP_9_7185 (protein)
chain: MQEIKEKILKEVKEHLALIVEVAPPEHRELVTAESDKVLKELEKAVEDPNTTLEELLEKLEKLFDAFVALMAAHVPPEVARMIEAEAGTAILEAEEIIEE
B20: GBRAP_80_6774 (protein)
chain: ALEEAEKAIEEVEKLDPELAERLRKILKRLLEQGASEETLKAFAELAKAVAEALKLGLRETAREAVEEAEEAAELEDEEEITAMLRGIAGEVLMEVEEKE
B21: GBRAP_52_6236 (protein)
chain: MEEEQRRKAEEIVALVKAGDREGARALARELARTLNREEAELFIEEFARLAREQPAEDIDAVWEAAEIVAEAFEEAGWPDVLVDDLEARVAAALVEVERR
B22: GBRAP_78_6612 (protein)
chain: ETKEEILKLLEEAEELARKVRELAPEVADEANEVAVLLGTAIYFVDTGSESKEEILETLEEAKKAAEELEKLVKGAEEKVQKLVKELKKKIEEAIKLLKK
B23: GBRAP_125_3144 (protein)
chain: RREELLRLAEALARAFGYSEEEIAEIRELAEAGDPAQTIVAIALAEDWEELAAAAEEVLPRLTAEEVAELADLAEALLDAPREEFAAAVLARLRELGARL
B24: GBRAP_57_6454 (protein)
chain: MSRLEKVEEKAEKTKKLIDENAPKEEIEESIRELLELLSEEVLLDVALILDPTTDPNFSKEELIEKIVEIIMEALEKEGKEKAYKYIDLIEGQAEMDEIE
B25: GBRAP_64_6497 (protein)
chain: LEELKKELEEELEKAIEHLRKAAELDPENREKYLELAERVEESKKLSVEERLDVLAEIAKEVNELLKEHKDDPEVADELSEALYHISAAAALAAELEEEL
B26: GBRAP_78_6742 (protein)
chain: KAEEVIDETLEVIDRALRALSSLPIEKVGDAMLHLLDAAEALEEAEEEGFPLEKIEEAAKHLGKAIEIIEEKGIELPEEVLEALKKAHEKLKKLAEEKKK
B27: GBRAP_160_3980 (protein)
chain: SEEIEKLKKEIKEIFEEAKEMIKGQSFEERLAIVSVAVGEIILLLEEDPNTSDETVEKVDEIGDELIEYLEENPDLTDEEIEELIEEALKKILEVIDEDA
B28: GBRAP_160_4384 (protein)
chain: SAALAALAAEIEALRAEFVAEAKDLNTAETRTLALGVLAEVAALVWENEAVSEATRDQIMAIIDAAEAELRANADAPPAEIVAITTAAFDKIIALVRAEA
B29: GBRAP_160_4728 (protein)
chain: EERIKEFVEEFREKFLETIELSKDESKEEQNALFEGTAGEILMDAFEEPFLSDEQEDVVAEILDELVEELKKNWDASEEEKKKIVDEKMEELLEKLLELE

What follows are binders tested against GABARAP, O95166 (assay: median log2 fold change of GCK-ALFA target abundance (FLAG IP / Myc IP barcode read proportion) (log2 ratio); each designed protein is fused to an ALFA-tag nanobody in HEK293 cells to bring the named protein to FLAG-tagged glucokinase (GCK); Myc marks an untargeted standard; higher = target protein stabilised (more abundant)). Details: target protein: 3xFLAG-MCP-GCK-ALFA reporter; HEK293 landing pad (RPLP).
GABARAP, O95166, sequence (O95166 whole entry, the tested form may be a part): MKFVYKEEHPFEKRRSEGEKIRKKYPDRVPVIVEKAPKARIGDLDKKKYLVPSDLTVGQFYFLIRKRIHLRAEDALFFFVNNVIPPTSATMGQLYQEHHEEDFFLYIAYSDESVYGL
Outline: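 An ALFA-nanobody-fused binder library was recombined into HEK293 landing-pad cells and induced with 2 μg mL^−1 doxycycline. Cells were transfected with a plasmid expressing a FLAG-tagged target and a Myc-tagged standard. After 48 h, lysates underwent anti-FLAG and anti-Myc immunoprecipitation, and circular RNA barcodes were reverse transcribed, amplified and sequenced. Target abundance is the per-binder median log2 ratio of FLAG to Myc barcode read proportions. Barcodes needed ≥10^−7 proportion in both replicates, binders ≥3 barcodes per replicate, and a 10^−6 pseudocount was added; the two replicates were pooled.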

Binder | median log2 fold change
B1 | -0.173
B2 | -0.2
B3 | -0.352
B4 | 0.149
B5 | 0.096
B6 | 0.107
B7 | 0.135
B8 | 0.0279
B9 | 0.308
B10 | -0.366
B11 | 0.154
B12 | -0.692
B13 | 0.00303
B14 | -0.0752
B15 | 0.155
B16 | -0.441
B17 | 0.0821
B18 | 0.236
B19 | 0.153
B20 | 0.36
B21 | -0.152
B22 | 0.21
B23 | -0.099
B24 | 0.423
B25 | 0.215
B26 | 0.00785
B27 | -0.403
B28 | 0.14
B29 | -0.172

Source: the supplement of paper PMC12632987
